Several values for one entry are separate records, joined by “and”; a condition that tells them apart may be missing. Equal entries are not always repeated. In all, about 390,000 compounds went through this assay and about 1,400 (0.36%) were called active. Inconclusive means that the source gave no clear call. Such entries were picked first, then a sample of the others. The call rests on the fitted dose curve; in most records, active means well fitted inhibition curve with a large enough effect; inconclusive means small, poorly fitted or top-dose-only effect; inactive means no such curve, though single readings can be large or run the other way. Potencies of inconclusive entries are doubtful fits and often do not repeat.
molecular target: Flap endonuclease 1 (Homo sapiens) (UniProt P39748); assay: qHTS Assay for the Inhibitors of Human Flap endonuclease 1 (FEN1).; further: nearly all actives have a fitted effect of over 65% in size; conditions: Recombinant FEN1 flap cleavage, fluorescence, 15 min; series mostly up to 114 µM; activity change, negative = inhibition: at the top concentration
Chain of UniProt P39748 (P39748 whole entry, looked up): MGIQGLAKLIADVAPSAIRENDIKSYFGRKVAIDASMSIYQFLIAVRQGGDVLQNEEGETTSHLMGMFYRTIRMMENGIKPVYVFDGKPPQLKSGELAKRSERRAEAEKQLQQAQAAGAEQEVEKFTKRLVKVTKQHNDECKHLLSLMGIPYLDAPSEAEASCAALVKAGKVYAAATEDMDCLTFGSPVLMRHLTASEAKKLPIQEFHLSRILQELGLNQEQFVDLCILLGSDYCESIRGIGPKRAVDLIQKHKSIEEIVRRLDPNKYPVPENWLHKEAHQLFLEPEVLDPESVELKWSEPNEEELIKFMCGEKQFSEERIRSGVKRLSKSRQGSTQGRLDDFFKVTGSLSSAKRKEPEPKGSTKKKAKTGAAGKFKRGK
How it was run: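 Quantitative HTS format: each compound was titrated, incubated with 10 nM nuclease for 15 min at room temperature, then challenged with flap substrate at 50 nM final. Signal change over 15 min gave concentration–effect curves.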
On the % scale 0 is the no-effect control and ±100 the full control effect; potency means the concentration at half of the fitted maximal effect; tags describe the fitted curve by direction and shape.

SMILES	Potency	activity change, negative = inhibition
CCN(CC)c1ccc(-c2nn3c(-c4cccnc4)nnc3s2)cc1	inconclusive: 44.7 µM [inhibitor, partial curve]	–
COc1ccccc1N(C)S(=O)(=O)c1ccc(C(=O)Nc2cc(OC)c(OC)c(OC)c2)cc1	inconclusive: 79.4 µM [inhibitor, partial curve, poor fit]	–
CCOC(=O)c1c(NC(=O)c2ccc(S(=O)(=O)N(CC(C)C)CC(C)C)cc2)sc2c1CCN(CC)C2	–	inactive: -2.1%
CCOC(=O)Cn1nnnc1C(C(C)C)N(Cc1cccs1)Cc1cc2cc(C)ccc2[nH]c1=O (stereo not given)	inconclusive: 89.1 µM [inhibitor, partial curve, poor fit]	–
COC(=O)/C=C1\SC(=Nc2ccccc2)NC1=O	–	inactive: 14.5%
Clc1ccc(-c2ccc(-c3nn4c(-c5ccco5)nnc4s3)o2)cc1	–	inactive: -22.7%
CC1=NOC(=O)/C1=C\c1ccc(-c2ccc(Cl)c(C(=O)O)c2)o1	inconclusive: 50.1 µM [inhibitor, partial curve, poor fit]	–
Cc1cccc(-n2nc3c(c2NC(=O)c2ccco2)CSC3)c1C	inconclusive: 56.2 µM [inhibitor, partial curve]	–
CCC(C(=O)NCCC(C)C)N(C(=O)Cn1nnc(-c2ccc(C)cc2)n1)c1cccc(O)c1 (stereo not given)	–	inactive: 2.65%
COc1cc(OC)cc(C(=O)Nc2nc3ccc(S(C)(=O)=O)cc3s2)c1	inconclusive: 79.4 µM [inhibitor, partial curve, poor fit]	–
CCOc1ccc(NC(=O)C2CCCN(S(=O)(=O)c3ccc4c(c3)CCCN4C(C)=O)C2)cc1 (stereo not given)	inconclusive: 79.4 µM [inhibitor, partial curve, poor fit]	–
O=C(Nc1ccc2oc(-c3ccccc3)nc2c1)c1cc(-n2cnnc2)ccc1Cl	inconclusive: 44.7 µM [inhibitor, partial curve]	–
Oc1ccccc1-c1nc(NCC2CCCO2)c2ccccc2n1 (stereo not given)	inconclusive: 50.1 µM [inhibitor, partial curve, poor fit]	–
CCN(CC)c1ccc(C(=C2C=CC(=[N+](CC)CC)C=C2)c2ccc(N(CC)CC)cc2)cc1	inconclusive: 89.1 µM [inhibitor, single point]	–
COc1ccc2c3c(cccc13)C(=O)CC2	active: 50.1 µM	–
O=C(COC(=O)c1nn(CCO)c(=O)c2ccccc12)Nc1ccc(Cl)c(Cl)c1	inconclusive: 79.4 µM [inhibitor, partial curve, poor fit]	–
COc1ccc(C(=O)NCCc2csc(-c3ccc(Cl)cc3)n2)c(OC)c1	inconclusive: 70.8 µM [inhibitor, partial curve, poor fit]	–
O=C(O)c1cccc(NS(=O)(=O)c2ccc3c(c2)C(=O)c2ccccc2C3=O)c1	inconclusive: 89.1 µM [inhibitor, single point]	–
Oc1ccc(NCc2ccccc2OCc2ccccc2)cc1	inconclusive: 8.91 µM [inhibitor, partial curve]	–
O=c1cc(CN2CCN(C/C=C/c3ccccc3)CC2)c2cc(O)c(-c3ccccc3)cc2o1	–	inactive: 2.83%

SMILES	Potency	activity change, negative = inhibition
COc1ccccc1OCC(=O)NCCS(=O)(=O)N1CCN(c2ccccc2OC)CC1	–	inactive: -1.78%
CCN(CC)CCNC(=O)c1cc2c(-c3cccc(OC)c3)nn(C)c2s1	inconclusive: 35.5 µM [inhibitor, partial curve] and inconclusive: 39.8 µM [inhibitor, partial curve]	–
CCOC(=O)NC(=O)C(/C=N/c1sccc1C(=O)OC)=C(\C)O	–	inactive: 1.15%
COc1ccc(CNC(=O)c2cc3cccc4c3n2CC(C)S4)cc1OC (stereo not given)	inconclusive: 50.1 µM [inhibitor, partial curve, poor fit]	–
CC(C)c1ccc2c(c1)c(SC(C)(C)C)c(CC(C)(C)C(=O)O)n2Cc1ccc(Cl)cc1	inconclusive: 56.2 µM [inhibitor, partial curve, poor fit]	–
Cc1ccc(NC(=O)N2CCN(Cc3nc4ccc(C)cc4o3)CC2)cc1	–	inactive: 3.18%
COc1ccc(C(=O)c2sc3nc(-c4ccccc4)ccc3c2N)cc1OC	inconclusive: 50.1 µM [inhibitor, partial curve]	–
O=c1[nH]n2c(=O)c3c([nH]c2c1N=Nc1cccc(C(F)(F)F)c1)CCCC3	inconclusive: 56.2 µM [inhibitor, partial curve, poor fit]	–
CN(C)CCCNC(=S)N(Cc1cccs1)Cc1cc2cc3c(cc2[nH]c1=O)OCCO3	inconclusive: 56.2 µM [inhibitor, partial curve, poor fit]	–
CC(C)COc1ccc(-c2nn(-c3ccccc3)cc2CO)cc1	inconclusive: 39.8 µM [inhibitor, partial curve, poor fit]	–
Clc1ccc(CSc2ncn(-c3ccccc3)n2)cc1	inconclusive: 89.1 µM [inhibitor, partial curve, poor fit]	–
CCCCNc1nc(N)nc(-c2cc(Cl)ccc2O)n1	inconclusive: 44.7 µM [inhibitor, partial curve, poor fit]	–
Cc1cccc(C)c1NC(=O)CCCn1c(=O)c2cccn2c2ccccc21	–	inactive: 6.9%
O=C1C(NS(=O)(=O)c2cccs2)=C(N2CCOCC2)C(=O)c2ccccc21	–	inactive: -20.1%
CC(C)c1ccc(C(=O)COC(=O)C(O)c2ccccc2)cc1 (stereo not given)	–	inactive: -6.5%
CN(C)n1cccc1/C=C(\C#N)S(=O)(=O)c1ccc(Cl)cc1	–	inactive: -16.6%
Cn1cc(C(=O)NCc2ccc(F)cc2)c(=O)c2cc(S(=O)(=O)N3CCCCC3)ccc21	inconclusive: 89.1 µM [inhibitor, single point]	–
COc1ccc(-c2nc(NC(=O)C3CC(=O)N(Cc4ccco4)C3)sc2C)cc1 (stereo not given)	inconclusive: 70.8 µM [inhibitor, partial curve, poor fit]	–
Cc1cc(N(C)C)cc(C)c1/C=C/c1cc[n+](C)c2ccccc12	inconclusive: 44.7 µM [inhibitor, partial curve]	–
Cc1nc2c(=O)[nH]c(=S)n(C)c2nc1C	inconclusive: 89.1 µM [inhibitor, partial curve, poor fit]	–

— PubChem BioAssay AID588795 (National Center for Advancing Translational Sciences (NCATS), 2011)
